# Paper PMC5469273, “Discovery of Novel Small-Molecule Inhibitors of LIM Domain Kinase for Inhibiting HIV-1” (Journal of Virology, 2017)
# Legend:
# [1] = test system: HIV 92/BR/018 (Brazil) and HIV 93UG070 (Uganda); experiment: HIV-1 primary isolate infection of PBMC (p24 ELISA); conditions: 100 μM 1 h, infection 3 h, washed, 3 days
# HIV-1(AD8) = format: cell-based; conditions: washed, 5 days, CD3/CD28 activation
# HIV-1(NL4-3) = format: cell-based; conditions: 100 μM 1 h, infection 2 h, washed, 5 days, CD3/CD28 activation; p24
# [2] = test system: threonine 508/505 phosphorylation of LIMK1/2; experiment: Western blotting for p-LIMK1/2 in CEM-SS T cells; conditions: 100 μM, time course
smiles,measurement,setting,value
"COC(=O)c1ccc2[nH]c(C3CCN(c4ncnc5[nH]cc(Cl)c45)CC3)nc2c1 [Compound R10015, Methyl 2-(1-(5-chloro-7H-pyrrolo[2,3-d]pyrimidin-4-yl)piperidin-4-yl)-1H-benzo[d]imidazole-5-carboxylate]",HIV replication of primary isolates in PBMC,[1],inhibition
same,R5 HIV latent infection of resting memory CD4 T cells,HIV-1(AD8),dose-dependent inhibition
same,X4 HIV-1 latent infection of resting CD4 T cells,HIV-1(NL4-3),blocked
same,threonine 508/505 phosphorylation of LIMK1/2,[2],did not inhibit
